# Experimental data published in the supplement of paper PMC10037445.
# Over roughly 2,900 compounds, “NF-kB SEAP reporter activity, fold change vs agonist alone” has its median near 0.99; the highest 2% begin near 2.6. Some of the results follow.
# Legend:
# RAW-Dual [1] = test: NF-kB SEAP reporter activity, fold change vs agonist alone; cytotoxicity flag (confluency mask): not cytotoxic; higher = enhanced NF-kB activity
# Procedure, shortened: (§1)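 Supernatant from RAW-Dual macrophages was read after 20 hours for IRF by QuantiLuc luminescence and for NF-κB by QuantiBlue absorbance at 620 nm. The cells (50,000 cells/well in DMEM, 384-well plates, 37 °C, 5% CO2) had received 50 nL of library stock by pin tool and, 1 h later, a PRR agonist. Reporter activity is expressed relative to agonist-alone wells as fold change, and wells were flagged cytotoxic if IncuCyte confluency was under 70% of agonist controls in both mask sets.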
# RAW-Dual [2] = test: NF-kB SEAP reporter activity, fold change vs agonist alone; higher = enhanced NF-kB activity
# Procedure, shortened: as §1
# RAW-Dual [3] = test: NF-kB SEAP reporter activity, fold change vs agonist alone; cytotoxicity flag (confluency mask): cytotoxic (confluency <70% of control); higher = enhanced NF-kB activity
# Procedure, shortened: as §1
# [4] = agonist: ODN 1826 (TLR9) 0.5 ug/mL
# [5] = agonist: Pam2CSK4 (TLR2/6) 0.1 ug/mL
# [6] = agonist: Pam3CSK4 (TLR2/1) 0.1 ug/mL
# [7] = library stock concentration (final ~1000-fold dilution): 10 mM, cytotoxicity flag (confluency mask): not cytotoxic, agonist: Imiquimod (TLR7) […]
# [8] = library stock concentration (final ~1000-fold dilution): 10 mM, cytotoxicity flag (confluency mask): not cytotoxic, agonist: MPLA (TLR4) […]
# [9] = library stock concentration (final ~1000-fold dilution): 10 mM, cytotoxicity flag (confluency mask): cytotoxic (confluency <70% of control), agonist: Imiquimod (TLR7) […]
# [10] = library stock concentration (final ~1000-fold dilution): 10 mM, cytotoxicity flag (confluency mask): cytotoxic (confluency <70% of control), agonist: MPLA (TLR4) […]
structure (smiles),measurement,setting,value
CC(C)Oc1ccc(-c2c[nH]cc2CN(C)CCN)cc1 (library stock concentration (final ~1000-fold dilution): 10 mM),NF-kB SEAP reporter activity,RAW-Dual [1]; agonist: LPS (TLR4) 0.1 ug/mL,1.08
same,NF-kB SEAP reporter activity,RAW-Dual [1]; [4],0.258
same,NF-kB SEAP reporter activity,RAW-Dual [1]; [5],0.578
same,NF-kB SEAP reporter activity,RAW-Dual [1]; [6],0.592
NS(=O)(=O)c1cc(C2(O)NC(=O)c3ccccc32)ccc1Cl (stereo unspecified),NF-kB SEAP reporter activity,RAW-Dual [2]; [7],1.04
same,NF-kB SEAP reporter activity,RAW-Dual [2]; [8],1.03
NS(=O)(=O)c1cc(C2(O)NC(=O)c3ccccc32)ccc1Cl (stereo unspecified) (library stock concentration (final ~1000-fold dilution): 10 mM),NF-kB SEAP reporter activity,RAW-Dual [1]; agonist: LPS (TLR4) 0.1 ug/mL,0.972
same,NF-kB SEAP reporter activity,RAW-Dual [1]; [4],0.954
same,NF-kB SEAP reporter activity,RAW-Dual [1]; [5],1.12
same,NF-kB SEAP reporter activity,RAW-Dual [1]; [6],1.07
O=C(NCc1c(F)cc(F)cc1F)c1cn2c(c(O)c1=O)C(=O)N1C3CCC(C3)OC1C2 (stereo unspecified) (library stock concentration (final ~1000-fold dilution): 10 mM),NF-kB SEAP reporter activity,RAW-Dual [3]; agonist: LPS (TLR4) 0.1 ug/mL,0.84
same,NF-kB SEAP reporter activity,RAW-Dual [3]; [4],0.276
same,NF-kB SEAP reporter activity,RAW-Dual [3]; [5],1.02
same,NF-kB SEAP reporter activity,RAW-Dual [3]; [6],0.61
O=C(NCc1c(F)cc(F)cc1F)c1cn2c(c(O)c1=O)C(=O)N1C3CCC(C3)OC1C2 (stereo unspecified),NF-kB SEAP reporter activity,RAW-Dual [2]; [9],2.27
same,NF-kB SEAP reporter activity,RAW-Dual [2]; [10],1.46
CC(C)(C)c1cnc(CSc2cnc(NC(=O)C3CCNCC3)s2)o1,NF-kB SEAP reporter activity,RAW-Dual [2]; [9],0.249
same,NF-kB SEAP reporter activity,RAW-Dual [2]; [10],0.249
CC(C)(C)c1cnc(CSc2cnc(NC(=O)C3CCNCC3)s2)o1 (library stock concentration (final ~1000-fold dilution): 10 mM),NF-kB SEAP reporter activity,RAW-Dual [3]; agonist: LPS (TLR4) 0.1 ug/mL,0.28
same,NF-kB SEAP reporter activity,RAW-Dual [3]; [4],0.28
same,NF-kB SEAP reporter activity,RAW-Dual [3]; [5],0.101
same,NF-kB SEAP reporter activity,RAW-Dual [3]; [6],0.191
COc1cc(Br)c(Nc2nc(-c3c(C)nc4ncccn34)cs2)c(Br)c1,NF-kB SEAP reporter activity,RAW-Dual [2]; [7],1.41
same,NF-kB SEAP reporter activity,RAW-Dual [2]; [8],2.42
COc1cc(Br)c(Nc2nc(-c3c(C)nc4ncccn34)cs2)c(Br)c1 (library stock concentration (final ~1000-fold dilution): 10 mM),NF-kB SEAP reporter activity,RAW-Dual [1]; agonist: LPS (TLR4) 0.1 ug/mL,1.97
same,NF-kB SEAP reporter activity,RAW-Dual [1]; [4],1.99
same,NF-kB SEAP reporter activity,RAW-Dual [1]; [5],0.309
same,NF-kB SEAP reporter activity,RAW-Dual [1]; [6],0.927
CC(C)Oc1ccc(-c2nn(C(C)c3oc4ccc(F)cc4c(=O)c3-c3cccc(F)c3)c3ncnc(N)c23)cc1F (stereo unspecified),NF-kB SEAP reporter activity,RAW-Dual [2]; [7],1.05
same,NF-kB SEAP reporter activity,RAW-Dual [2]; [8],1.14
CC(C)Oc1ccc(-c2nn(C(C)c3oc4ccc(F)cc4c(=O)c3-c3cccc(F)c3)c3ncnc(N)c23)cc1F (stereo unspecified) (library stock concentration (final ~1000-fold dilution): 10 mM),NF-kB SEAP reporter activity,RAW-Dual [1]; agonist: LPS (TLR4) 0.1 ug/mL,0.919
same,NF-kB SEAP reporter activity,RAW-Dual [1]; [4],0.522
same,NF-kB SEAP reporter activity,RAW-Dual [1]; [5],0.308
same,NF-kB SEAP reporter activity,RAW-Dual [1]; [6],0.479
CN1C(=O)c2sccc2N(C)c2nc(Nc3ccc(S(N)(=O)=O)cc3)ncc21 (library stock concentration (final ~1000-fold dilution): 10 mM),NF-kB SEAP reporter activity,RAW-Dual [1]; agonist: LPS (TLR4) 0.1 ug/mL,5.75
same,NF-kB SEAP reporter activity,RAW-Dual [1]; [4],3.02
same,NF-kB SEAP reporter activity,RAW-Dual [1]; [5],1.22
same,NF-kB SEAP reporter activity,RAW-Dual [1]; [6],2.56
CN1C(=O)c2sccc2N(C)c2nc(Nc3ccc(S(N)(=O)=O)cc3)ncc21,NF-kB SEAP reporter activity,RAW-Dual [2]; [7],1.86
same,NF-kB SEAP reporter activity,RAW-Dual [2]; [8],2.45
Cl.NCc1c[nH]c(=S)n1C1CCc2c(F)cc(F)cc2C1 (stereo unspecified),NF-kB SEAP reporter activity,RAW-Dual [2]; [7],1.12
same,NF-kB SEAP reporter activity,RAW-Dual [2]; [8],0.889
Cl.NCc1c[nH]c(=S)n1C1CCc2c(F)cc(F)cc2C1 (stereo unspecified) (library stock concentration (final ~1000-fold dilution): 10 mM),NF-kB SEAP reporter activity,RAW-Dual [1]; agonist: LPS (TLR4) 0.1 ug/mL,0.779
same,NF-kB SEAP reporter activity,RAW-Dual [1]; [4],0.895
same,NF-kB SEAP reporter activity,RAW-Dual [1]; [5],0.82
same,NF-kB SEAP reporter activity,RAW-Dual [1]; [6],0.904
COC1CC2CCC(C)C(O)(O2)C(=O)C(=O)N2CCCCC2C(=O)OC(C(C)CC2CCC(O)C(OC)C2)CC(=O)C(C)C=C(C)C(O)C(OC)C(=O)C(C)CC(C)C=CC=CC=C1C (stereo unspecified),NF-kB SEAP reporter activity,RAW-Dual [2]; [7],1.44
same,NF-kB SEAP reporter activity,RAW-Dual [2]; [8],1.5
same,NF-kB SEAP reporter activity,"RAW-Dual [2]; library stock concentration (final ~1000-fold dilution): .1 mM, cytotoxicity flag (confluency mask): not cytotoxic, agonist: Imiquimod (TLR7) […]",1.35
same,NF-kB SEAP reporter activity,"RAW-Dual [2]; library stock concentration (final ~1000-fold dilution): .1 mM, cytotoxicity flag (confluency mask): not cytotoxic, agonist: MPLA (TLR4) […]",1.19
COC1CC2CCC(C)C(O)(O2)C(=O)C(=O)N2CCCCC2C(=O)OC(C(C)CC2CCC(O)C(OC)C2)CC(=O)C(C)C=C(C)C(O)C(OC)C(=O)C(C)CC(C)C=CC=CC=C1C (stereo unspecified) (library stock concentration (final ~1000-fold dilution): 10 mM),NF-kB SEAP reporter activity,RAW-Dual [1]; agonist: LPS (TLR4) 0.1 ug/mL,1.57
same,NF-kB SEAP reporter activity,RAW-Dual [1]; [4],1.11
same,NF-kB SEAP reporter activity,RAW-Dual [1]; [5],0.536
same,NF-kB SEAP reporter activity,RAW-Dual [1]; [6],0.77
COC1CC2CCC(C)C(O)(O2)C(=O)C(=O)N2CCCCC2C(=O)OC(C(C)CC2CCC(O)C(OC)C2)CC(=O)C(C)C=C(C)C(O)C(OC)C(=O)C(C)CC(C)C=CC=CC=C1C (stereo unspecified) (library stock concentration (final ~1000-fold dilution): .1 mM),NF-kB SEAP reporter activity,RAW-Dual [1]; agonist: LPS (TLR4) 0.1 ug/mL,1.2
same,NF-kB SEAP reporter activity,RAW-Dual [1]; [4],1.31
same,NF-kB SEAP reporter activity,RAW-Dual [1]; [5],1.53
same,NF-kB SEAP reporter activity,RAW-Dual [1]; [6],1.44
CN1CCC(OC(c2ccccc2)c2ccccc2)CC1.Cl,NF-kB SEAP reporter activity,RAW-Dual [2]; [7],1.28
same,NF-kB SEAP reporter activity,RAW-Dual [2]; [8],1.17
CN1CCC(OC(c2ccccc2)c2ccccc2)CC1.Cl (library stock concentration (final ~1000-fold dilution): 10 mM),NF-kB SEAP reporter activity,RAW-Dual [1]; agonist: LPS (TLR4) 0.1 ug/mL,1.15
same,NF-kB SEAP reporter activity,RAW-Dual [1]; [4],0.662
same,NF-kB SEAP reporter activity,RAW-Dual [1]; [5],1.01
same,NF-kB SEAP reporter activity,RAW-Dual [1]; [6],0.852
CCC1(O)CC2CN(CCc3c([nH]c4ccccc34)C(C(=O)OC)(c3cc4c(cc3OC)N(C)C3C(O)(C(=O)OC)C(OC(C)=O)C5(CC)C=CCN6CCC43C65)C2)C1.O=S(=O)(O)O (stereo unspecified) (library stock concentration (final ~1000-fold dilution): 10 mM),NF-kB SEAP reporter activity,RAW-Dual [3]; agonist: LPS (TLR4) 0.1 ug/mL,5.91
same,NF-kB SEAP reporter activity,RAW-Dual [3]; [4],2.96
same,NF-kB SEAP reporter activity,RAW-Dual [3]; [5],1.48
same,NF-kB SEAP reporter activity,RAW-Dual [3]; [6],1.94
CCC1(O)CC2CN(CCc3c([nH]c4ccccc34)C(C(=O)OC)(c3cc4c(cc3OC)N(C)C3C(O)(C(=O)OC)C(OC(C)=O)C5(CC)C=CCN6CCC43C65)C2)C1.O=S(=O)(O)O (stereo unspecified),NF-kB SEAP reporter activity,RAW-Dual [2]; [9],2.51
same,NF-kB SEAP reporter activity,RAW-Dual [2]; [10],2.53
CC(=O)c1c(C)c2cnc(Nc3ccc(N4CCNCC4)cn3)nc2n(C2CCCC2)c1=O.Cl (library stock concentration (final ~1000-fold dilution): 10 mM water),NF-kB SEAP reporter activity,RAW-Dual [1]; agonist: LPS (TLR4) 0.1 ug/mL,1.7
same,NF-kB SEAP reporter activity,RAW-Dual [1]; [4],0.27
same,NF-kB SEAP reporter activity,RAW-Dual [1]; [5],0.715
same,NF-kB SEAP reporter activity,RAW-Dual [1]; [6],1.13
CC(=O)c1c(C)c2cnc(Nc3ccc(N4CCNCC4)cn3)nc2n(C2CCCC2)c1=O.Cl,NF-kB SEAP reporter activity,"RAW-Dual [2]; library stock concentration (final ~1000-fold dilution): 10 mM water, cytotoxicity flag (confluency mask): not cytotoxic, agonist: Imiquimod (TLR7) […]",0.698
same,NF-kB SEAP reporter activity,"RAW-Dual [2]; library stock concentration (final ~1000-fold dilution): 10 mM water, cytotoxicity flag (confluency mask): not cytotoxic, agonist: MPLA (TLR4) […]",1.11
